Measurements reported in PubChem BioAssay AID686978 (National Center for Advancing Translational Sciences (NCATS), 2013).
About 64,000 (15%) of roughly 420,000 compounds were called active. The inconclusive results got no clear call from the source; some entries with a clear call stand among them for comparison. Calls come from the whole dose curve; as a rule, active = well fitted inhibition curve with a large enough effect; inconclusive = small, poorly fitted or top-dose-only effect; inactive = flat fitted curve, though single readings scatter. No potency is given beside an inconclusive call; the fits are too rough.

Assay: qHTS for Inhibitors of human tyrosyl-DNA phosphodiesterase 1 (TDP1): qHTS in cells in absence of CPT; note: nearly all actives have a fitted effect of over 55% in size
Settings: DT40 Tdp1-/- hTDP1 cells, no CPT, ATP luminescence, 48 h; activity change, negative = growth inhibition: at 46.2 µM (top of the series) unless noted
In short: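 Stably hTDP1-transfected Tdp1-null chicken DT40 cells were treated with library compounds minus camptothecin and grown for at least 48 hr at 37 °C, after which cellular ATP was quantified by luminescence.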
% is set by controls: 0 for no effect and ±100 for the full control effect; potency is the fitted concentration of half-maximal effect; tags give direction and shape of the fitted curve.

| SMILES | Potency | activity change, negative = growth inhibition |
| --- | --- | --- |
| COc1cccc(C(=O)Nc2cc(C)c3c(=O)oc4ccccc4c3n2)c1 | inconclusive [inhibitor, single point] |  |
| CCc1noc(C)c1C(=O)N(CC(C)C)c1c(N)n(Cc2ccccc2)c(=O)[nH]c1=O | inactive |  |
| O=Cc1ccccc1OCCCOc1cccc2cccnc12 | active: 2.06 µM |  |
| Cn1ccnc1SCCNC(=O)CCc1nnc(CCc2ccccc2)o1 | inconclusive [inhibitor, full curve, poor fit] |  |
| COc1ccccc1CNC(=O)C1CC(c2c(Cl)cccc2Cl)=NO1 (configuration not stated) | inactive |  |
| COc1ccccc1N1CCN(C(=O)c2cccc(S(=O)(=O)NCc3cccnc3)c2)CC1 | inconclusive [inhibitor, partial curve] |  |
| CCc1nnc(NC(=O)[C@@H](NC(=O)c2cccc(S(=O)(=O)N(CC)CC)c2)C(C)C)s1 | inactive |  |
| CCn1nc(C)c(NC(=O)c2ccc(Cl)cc2)c1C | inactive |  |
| Cc1ccc(S(=O)(=O)N(C)C)cc1NC(=O)C(C)OC(=O)c1ccc2c(=O)n3c(nc2c1)CCC3 (configuration not stated) | inactive |  |
| CCc1ccc(NC(=O)CN2C(=O)C3(SCC(=O)N3c3ccccc3)c3ccccc32)cc1 (configuration not stated) | inconclusive [inhibitor, single point] |  |
| CCc1cc(-c2nnn(-c3cc(C(C)C)ccc3C)c2CC)ccc1-c1cn(CCc2c[nH]c3ccccc23)nn1 | inconclusive [inhibitor, partial curve] |  |
| O=C(NC(=S)N1CCN(Cc2ccccc2)CC1)c1cccnc1 | active: 20.6 µM |  |
| CCOC(=O)C1=C(CSc2nc3c(cc2C#N)CCC3)OC(N)=C(C#N)C1c1ccccc1 (configuration not stated) | inconclusive [inhibitor, partial curve] |  |
| CC(=O)Nc1cc(-c2cccnc2)cn2c(-c3cccc(C(F)(F)F)c3)cnc12 | inconclusive [inhibitor, full curve, poor fit] |  |
| COCCNC(=S)N/N=C(\C)c1ccc(C)c([N+](=O)[O-])c1 | active: 1.46 µM |  |
| C=C(C)Cn1c(-c2ccncc2)n[nH]c1=S | inactive |  |
| Cc1ccc2c(c1)[C@H]1[C@H](CO2)[C@H](c2ccccc2)[C@]2(C)C(=O)N(Cc3ccc(Cl)cc3)CC(=O)N12 | active: 14.6 µM |  |
| CCOC(=O)c1ccc2c(c1)NC(=O)C(N1CCN(c3ccc(OC)cc3)CC1)S2 (configuration not stated) | inconclusive [inhibitor, single point] |  |
| Oc1ccc(Br)cc1CNc1ccccn1 | inconclusive [inhibitor, single point] |  |
| Cc1cccc(N(C(=O)c2csnn2)C(C(=O)NCc2ccccc2)c2cccs2)c1 (configuration not stated) | inconclusive [inhibitor, single point] |  |
| CC1(CCCN2C(=O)c3ccccc3C2=O)OCCO1 | inactive |  |
| CC1CCCCN1CC(=O)NC(=O)NCc1ccccc1 (configuration not stated) | inactive |  |
| CC1(C(=O)Nc2cccc3c2CCCC3)CCN1C(=O)CCc1ccc(Cl)cc1Cl (configuration not stated) | active: 23.1 µM |  |

| SMILES | Potency | activity change, negative = growth inhibition |
| --- | --- | --- |
| CC(C)(C)c1ccc(S(=O)(=O)N2CCN(C(=O)C3=COCCO3)CC2)cc1 | inconclusive [inhibitor, single point] |  |
| COCCN1Cc2c(sc(C)c2C)N(C(=O)c2ccccc2)C1 |  | inconclusive: -33.5% [inhibitor] |
| CC(C)/C=C(/C(=O)c1ccc(Cl)cc1Cl)n1cncn1 | active: 20.6 µM |  |
| O=C(Cc1ccccc1)NCc1ccncc1 | inactive |  |
| Cc1occc1C(=O)Nc1cccc(-c2nc(CNC(=O)c3ccc(N4CCCCC4)cc3)c(C)o2)c1 | active: 18.4 µM |  |
| COC(=O)C(Cc1ccccc1)NC(=O)c1cc(=O)[nH]c2ccccc12 (configuration not stated) | inactive |  |
| COc1ccc(C(=O)CSC(=S)N2CCCCC2)cc1 | inconclusive [inhibitor, single point] |  |
| CCN1C(=O)[C@H]2[C@H]3CN=C(SCc4ccc(C)cc4)N3[C@@](Cc3ccccc3)(C(=O)OC)[C@H]2C1=O | inconclusive [inhibitor, single point] |  |
| CCOC(=O)c1c[nH]c2nc(C)ccc2c1=O | inconclusive [inhibitor, single point] | inconclusive: -32% [inhibitor] |
| O=C(COc1ccc(F)cc1Cl)Nc1ccc(S(=O)(=O)Nc2nccs2)cc1 | inactive |  |
| Cc1ccc(NC(=O)/C(C#N)=C/c2ccc(C)o2)cc1 | inactive |  |
| O=C(COC(=O)CNC(=O)c1ccccc1)NC(=O)NC1CCCCC1 | inactive |  |
| CC[C@]12c3[nH]c4cc(CCC(=O)N(C)C)ccc4c3CCN1C(=O)[C@@H](CC(=O)NCC13CC4CC(CC(C4)C1)C3)C[C@@H]2C(=O)N1CCN(C(=O)c2ccco2)CC1 | active: 16.4 µM |  |
| CC(C)CCNC(=O)c1ccc2c(c1)NC(=O)C(CS(=O)(=O)Cc1cccc(Br)c1)N2 (configuration not stated) | inconclusive [inhibitor, single point] |  |
| COCc1cc(C)nc(SCC(=O)Nc2ccccc2N2CCOCC2)c1C#N | inconclusive [inhibitor, single point] |  |
| CC(=O)N1c2ccc(S(=O)(=O)N3CCC(C(=O)Nc4cccc(C)c4)CC3)cc2CC1C (configuration not stated) | inconclusive [inhibitor, partial curve] |  |
| CSc1cccc(NC(=O)c2nnn(CC(=O)Nc3cc(C)cc(C)c3)c2N)c1 | active: 6.51 µM |  |
| CCN(CC)c1ccc(C(=O)Nn2c(C)nc3ccccc3c2=O)cc1 | inactive |  |
| COc1ccccc1N1CCN(C(=O)c2cn(-c3ccccc3)nc2-c2cccnc2)CC1 | inconclusive [inhibitor, partial curve] |  |
| COc1ccc(CCNc2ncnc3c2cnn3-c2cccc(Cl)c2)cc1 | active: 25.9 µM |  |
| OCCC1CN(Cc2ccc(-c3ccco3)cc2)CCN1Cc1ccsc1 (configuration not stated) | inconclusive [inhibitor, partial curve] |  |
| Cc1cc(C)n(CCc2nc3c4ccccc4nc(N4CCN(c5ccccc5F)CC4)n3n2)n1 | inactive |  |
| N#CCSc1nc(N)c(C#N)c(C2CCCCC2)c1C#N | inconclusive [inhibitor, partial curve] |  |
